Measurements as given in patent US5556859A, “N-(4-pyrimidinyl)amide pesticides” (DowElanco, priority 1994, dated 1996).
The name of at least one read-out is uncertain.

How the values were obtained:
Type in all cases: in vivo
Settings in all cases: foliar spray, 400 ppm or 100 ppm per scale
[1] = tested on: Puccinia recondita tritici (leaf rust); test: Greenhouse fungicide test, PUCCRT on wheat
[2] = tested on: Leptosphaeria nodorum (glume blotch); test: Greenhouse fungicide test, LEPTNO on wheat
[3] = tested on: Pyricularia oryzae (rice blast)
[4] = tested on: Erysiphe graminis tritici (powdery mildew); test: Greenhouse fungicide test, ERYSGT on wheat

| SMILES | control of disease, PUCCRT [1] | control of disease, LEPTNO [2] | control of disease, PYRIOR [3] | control of disease, ERYSGT [4] |
| --- | --- | --- | --- | --- |
| CCc1nccc(NC(=O)C(=CN(C)C)c2ccc(Oc3ccc(C(F)(F)F)cc3)cc2)n1 [Compound 73, 3-(dimethylamino)-N-(2-ethyl-4-pyrimidinyl)-1-(4-(4-trifluoromethylphenoxy)phenyl)-2-propenamide] | ++ (90-100% control at 400 ppm) | +++ (90-100% control at 100 ppm) | + (20-89% control at 400 ppm) | ++ (90-100% control at 400 ppm) |
| CC(C)(C)c1nccc(NC(=O)Cc2ccc(Oc3ccc(Cl)cc3)cc2)n1 [Compound 59, 4-(4-chlorophenoxy)phenyl-N-(2-(1,1-dimethylethyl)-4-pyrimidinyl)acetamide] | ++ (90-100% control at 400 ppm) | +++ (90-100% control at 100 ppm) | + (20-89% control at 400 ppm) | + (20-89% control at 400 ppm) |
| O=C(Cc1ccc(Oc2ccc(Cl)cc2)cc1)Nc1ccnc(C2CC2)n1 [Compound 29, 4-(4-chlorophenoxy)phenyl-N-(2-cyclopropyl-4-pyrimidinyl)acetamide] | + (20-89% control at 400 ppm) | ++ (90-100% control at 400 ppm) | + (20-89% control at 400 ppm) | + (20-89% control at 400 ppm) |
| O=C(Cc1ccc(Oc2ccc(F)cc2)cc1)Nc1ccnc(Cl)n1 [Compound 54, 4-(4-fluorophenoxy)phenyl-N-(2-chloro-4-pyrimidinyl)acetamide] | + (20-89% control at 400 ppm) | - (0-19% control at 400 ppm) | - (0-19% control at 400 ppm) | - (0-19% control at 400 ppm) |
| C=C(C)c1nccc(NC(=O)Cc2ccc(Oc3ccc(F)cc3)cc2)n1 [Compound 27, 4-(4-fluorophenoxy)phenyl-N-(2-(1-methylethenyl)-4-pyrimidinyl)acetamide] | - (0-19% control at 400 ppm) | - (0-19% control at 400 ppm) | - (0-19% control at 400 ppm) | - (0-19% control at 400 ppm) |
| O=C(Cc1ccc(Oc2ccc(F)cc2)cc1)Nc1ccnc(C2CC2)n1 [Compound 16, 4-(4-fluorophenoxy)phenyl-N-(2-cyclopropyl-4-pyrimidinyl)acetamide] | ++ (90-100% control at 400 ppm) | ++ (90-100% control at 400 ppm) | + (20-89% control at 400 ppm) | + (20-89% control at 400 ppm) |
| CCc1nccc(NC(=O)COc2ccc(C(C)C)cc2)n1 [Compound 46, 4-(1-methylethyl)phenoxy-N-(2-ethyl-4-pyrimidinyl)acetamide] | - (0-19% control at 400 ppm) | - (0-19% control at 400 ppm) | - (0-19% control at 400 ppm) | + (20-89% control at 400 ppm) |
| CSc1nccc(NC(=O)Cc2ccc(OCC(F)(F)F)cc2)n1 [Compound 4, 4-(2,2,2-trifluroethoxy)phenyl-N-(2-methylthio-4-pyrimidinyl)acetamide] | +++ (90-100% control at 100 ppm) | +++ (90-100% control at 100 ppm) | + (20-89% control at 400 ppm) | + (20-89% control at 400 ppm) |
| Cc1nccc(NC(=O)Cc2ccc(OCC(F)(F)F)cc2)n1 [Compound 3, 4-(2,2,2-trifluroethoxy)phenyl -N-(2-methyl-4-pyrimidinyl)acetamide] | ++ (90-100% control at 400 ppm) | ++ (90-100% control at 400 ppm) | + (20-89% control at 400 ppm) | +++ (90-100% control at 100 ppm) |
| O=C(Cc1ccc(Oc2cccc(C(F)(F)F)c2)cc1)Nc1ccnc(C2CCC2)n1 [Compound 71, 4-(3-trifluoromethylphenoxy)phenyl-N-(2-cyclobutyl-4-pyrimidinyl)acetamide] | ++ (90-100% control at 400 ppm) | +++ (90-100% control at 100 ppm) | +++ (90-100% control at 100 ppm) | +++ (90-100% control at 100 ppm) |
| CCCc1nccc(NC(=O)Cc2ccc(Oc3ccc(F)cc3)cc2)n1 [Compound 19, 4-(4-fluorophenoxy)phenyl-N-(2-propyl-4-pyrimidinyl)acetamide] | ++ (90-100% control at 400 ppm) | ++ (90-100% control at 400 ppm) | ++ (90-100% control at 400 ppm) | - (0-19% control at 400 ppm) |
| CSc1nccc(NC(=O)Cc2ccc(Oc3ccc(F)cc3)cc2)n1 [Compound 6, 4-(4-fluorophenoxy)phenyl-N-(2-methylthio-4-pyrimidinyl)acetamide] | + (20-89% control at 400 ppm) | +++ (90-100% control at 100 ppm) | +++ (90-100% control at 100 ppm) | + (20-89% control at 400 ppm) |
| CCc1nccc(NC(=O)Cc2ccc(Oc3ccc(C(F)(F)F)cc3)cc2)n1 [Compound 11, 4-(4-trifluoromethylphenoxy)phenyl-N-(2-ethyl-4-pyrimidinyl)acetamide] | ++ (90-100% control at 400 ppm) | +++ (90-100% control at 100 ppm) | ++ (90-100% control at 400 ppm) | +++ (90-100% control at 100 ppm) |
| CCc1nccc(NC(=O)Cc2ccc(Oc3ccc(C#N)cc3)cc2)n1 [Compound 12, 4-(4-cyanophenoxy)phenyl-N-(2-ethyl-4-pyrimidinyl)acetamide] | ++ (90-100% control at 400 ppm) | +++ (90-100% control at 100 ppm) | ++ (90-100% control at 400 ppm) | +++ (90-100% control at 100 ppm) |
| CCc1nccc(NC(=O)Cc2ccc(OCC(F)(F)C(F)F)cc2)n1 [Compound 43, 4-(2,2,3,3-tetrafluropropoxy)phenyl-N-(2-ethyl-4-pyrimidinyl)acetamide] | ++ (90-100% control at 400 ppm) | + (20-89% control at 400 ppm) | ++ (90-100% control at 400 ppm) | +++ (90-100% control at 100 ppm) |
| CCc1nccc(NC(=O)Cc2ccc3ccccc3c2)n1 [Compound 50, 2-naphthyl-N-(2-ethyl-4-pyrimidinyl)acetamide] | ++ (90-100% control at 400 ppm) | ++ (90-100% control at 400 ppm) | ++ (90-100% control at 400 ppm) | +++ (90-100% control at 100 ppm) |
| CCCCCc1ccc(CC(=O)Nc2ccnc(CC)n2)cc1 [Compound 41, 4-pentylphenyl-N-(2-ethyl-4-pyrimidinyl)acetamide] | ++ (90-100% control at 400 ppm) | - (0-19% control at 400 ppm) | ++ (90-100% control at 400 ppm) | +++ (90-100% control at 100 ppm) |
